Laboratory results from the supplement of paper PMC4967469.
By IC50 is meant the dose at which the fit gives 50% viability; a limit (>, <) means that the fit lies beyond the doses tested. AUC is the area under the same curve over the 256-fold range up to the top dose, as a fraction; the more sensitive the line, the further below 1. For some of these results: Any top dose called inferred was derived from the fitted curves, not read from the paper. For some of these results: An entry number marks a drug with two screens in the source, which often give different values.

Tests used:
Assay in all cases: Viability of human cancer cell lines after 72 h of drug (GDSC screen)
QL-X-138 = compound: C=CC(=O)Nc1cc(-n2c(=O)ccc3cnc4ccc(-c5cn[nH]c5)cc4c32)ccc1C [QL-X-138]; settings: top dose 10.24 µM; top dose inferred
Experimental: (§1)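 Human cancer cell lines in 384-well plates, medium with 10% serum, drug for 72 h over a 256-fold dose range (nine 2-fold or five 4-fold steps up to the top dose). Adherent lines were fixed and stained with the nucleic acid dye Syto60, suspension lines read with resazurin; signal relative to control wells, capped at 0 and 100%. One two-parameter sigmoid per drug and line, fitted in a mixed model over all curves with the slope shared within a line.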

MPS-1-IN-1 = compound: COc1cc(N2CCC(O)CC2)ccc1Nc1cc(Nc2ccccc2S(=O)(=O)C(C)C)c2cc[nH]c2n1 [MPS-1-IN-1]; settings: top dose 20 µM; top dose inferred
Experimental: as §1

Cytarabine = compound: Nc1ccn([C@@H]2O[C@H](CO)[C@@H](O)[C@@H]2O)c(=O)n1 [Cytarabine]; settings: top dose 2 µM
Experimental: as §1

CP466722 = compound: COc1cc2ncnc(-n3nc(-c4ccccn4)nc3N)c2cc1OC [CP466722]; settings: top dose 16 µM; top dose inferred
Experimental: as §1

ABT-888 = compound: C[C@]1(c2nc3c(C(N)=O)cccc3[nH]2)CCCN1 [ABT-888]; settings: top dose 5 µM; top dose inferred
Experimental: as §1

Thapsigargin = compound: C/C=C(/C)C(=O)O[C@H]1C(C)=C2[C@H]([C@@H]1OC(=O)CCCCCCC)[C@@](C)(OC(C)=O)C[C@H](OC(=O)CCC)[C@@]1(O)[C@H]2OC(=O)[C@@]1(C)O [Thapsigargin]; settings: top dose 0.512 µM; top dose inferred
Experimental: as §1

GSK269962A = compound: CCn1c(-c2nonc2N)nc2cnc(Oc3cccc(NC(=O)c4ccc(OCCN5CCOCC5)cc4)c3)cc21 [GSK269962A]; settings: top dose inferred
Experimental: as §1

KU-55933 = compound: O=c1cc(-c2cccc3c2Sc2ccccc2S3)oc(N2CCOCC2)c1 [KU-55933]; settings: top dose 10 µM
Experimental: as §1

ABT-869 = compound: Cc1ccc(F)c(NC(=O)Nc2ccc(-c3cccc4[nH]nc(N)c34)cc2)c1 [ABT-869]; settings: top dose 1.024 µM; top dose inferred
Experimental: as §1

CHIR-99021 = compound: Cc1cnc(-c2cnc(NCCNc3ccc(C#N)cn3)nc2-c2ccc(Cl)cc2Cl)[nH]1 [CHIR-99021]
Experimental: as §1

Zibotentan = compound: COc1nc(C)cnc1NS(=O)(=O)c1cccnc1-c1ccc(-c2nnco2)cc1 [Zibotentan]; settings: top dose 20 µM; top dose inferred
Experimental: as §1

(5Z)-7-Oxozeaenol = compound: COc1cc(O)c2c(c1)/C=C/C[C@H](O)[C@H](O)C(=O)/C=C\C[C@H](C)OC2=O [(5Z)-7-Oxozeaenol]; settings: top dose 10 µM; top dose inferred
Experimental: as §1

[1] = top dose 5 µM, screen: GDSC drug entry 1192
[2] = top dose 2.56 µM, screen: GDSC drug entry 154
[3] = top dose 10 µM, screen: GDSC drug entry 1241, top dose inferred
[4] = top dose 2.5 µM, screen: GDSC drug entry 127

Cell Line | AUC (QL-X-138) | IC50 (QL-X-138) [µM] | AUC (MPS-1-IN-1) | IC50 (MPS-1-IN-1) [µM] | AUC (Cytarabine) | IC50 (Cytarabine) [µM] | AUC (CP466722) | IC50 (CP466722) [µM] | AUC (ABT-888) | IC50 (ABT-888) [µM] | AUC (Thapsigargin) | IC50 (Thapsigargin) [µM] | AUC (GSK269962A; [1]) | IC50 (GSK269962A; [1]) [µM] | AUC (KU-55933) | IC50 (KU-55933) [µM] | AUC (ABT-869) | IC50 (ABT-869) [µM] | AUC (CHIR-99021; [2]) | IC50 (CHIR-99021; [2]) [µM] | AUC (CHIR-99021; [3]) | IC50 (CHIR-99021; [3]) [µM] | AUC (Zibotentan) | IC50 (Zibotentan) [µM] | AUC ((5Z)-7-Oxozeaenol) | IC50 ((5Z)-7-Oxozeaenol) [µM] | AUC (GSK269962A; [4]) | IC50 (GSK269962A; [4]) [µM]
TYK-nu (ovary, adherent) | 0.92 | > 10.2 | 0.929 | > 20 | 0.754 | 0.713 | 0.904 | > 16 | 0.974 | > 5 | 0.189 | 0.00348 | 0.881 | > 5 | 0.918 | > 10 | 0.979 | > 1.02 | 0.75 | 0.887 | 0.878 | > 10 | 0.975 | > 20 | 0.44 | 0.423 | – | –
U-118-MG (glioma, adherent) | 0.811 | 6.52 | 0.979 | > 20 | 0.857 | > 2 | 0.985 | > 16 | 0.981 | > 5 | 0.478 | 0.0277 | 0.834 | 4 | 0.966 | > 10 | 0.96 | > 1.02 | 0.911 | > 2.56 | 0.942 | > 10 | 0.982 | > 20 | 0.686 | 2.27 | – | –
UACC-62 (melanoma, adherent) | 0.836 | 6.66 | 0.974 | > 20 | 0.749 | 0.644 | 0.949 | > 16 | 0.984 | > 5 | 0.689 | 0.107 | 0.921 | > 5 | 0.987 | > 10 | 0.983 | > 1.02 | – | – | 0.909 | > 10 | 0.984 | > 20 | 0.169 | 0.0625 | – | –
UACC-893 (breast, adherent) | 0.527 | 0.777 | 0.975 | > 20 | 0.944 | > 2 | 0.805 | 11.6 | 0.98 | > 5 | 0.65 | 0.0967 | 0.867 | > 5 | 0.957 | > 10 | 0.981 | > 1.02 | 0.983 | > 2.56 | 0.98 | > 10 | 0.982 | > 20 | 0.732 | 3.67 | – | –
VAL (B-cell lymphoma, suspension) | 0.504 | 0.655 | 0.911 | > 20 | 0.444 | 0.0879 | 0.62 | 2.14 | 0.987 | > 5 | 0.551 | 0.044 | 0.929 | > 5 | 0.967 | > 10 | 0.987 | > 1.02 | 0.986 | > 2.56 | 0.984 | > 10 | 0.987 | > 20 | 0.627 | 1.4 | 0.584 | 0.265
VMRC-RCZ (kidney, adherent) | 0.679 | 2.22 | 0.959 | > 20 | 0.838 | 1.68 | 0.769 | 7.03 | 0.98 | > 5 | 0.347 | – | 0.811 | 3.2 | 0.963 | > 10 | 0.963 | > 1.02 | 0.974 | > 2.56 | 0.883 | > 10 | 0.983 | > 20 | 0.652 | 1.78 | – | –
WM793B (melanoma, adherent) | 0.943 | > 10.2 | 0.922 | > 20 | 0.676 | 0.412 | 0.981 | > 16 | 0.982 | > 5 | 0.12 | < 0.002 | 0.873 | > 5 | 0.983 | > 10 | 0.979 | > 1.02 | 0.92 | > 2.56 | 0.832 | 7.38 | 0.982 | > 20 | 0.481 | 0.55 | – | –
WM1552C (melanoma, adherent) | 0.951 | > 10.2 | 0.974 | > 20 | 0.922 | > 2 | 0.664 | 2.86 | 0.988 | > 5 | 0.192 | 0.00383 | 0.979 | > 5 | 0.957 | > 10 | 0.982 | > 1.02 | 0.987 | > 2.56 | 0.97 | > 10 | 0.986 | > 20 | 0.286 | 0.154 | – | –
WM-115 (melanoma, adherent) | 0.424 | 0.377 | 0.861 | > 20 | 0.881 | > 2 | 0.765 | 7.12 | 0.962 | > 5 | 0.38 | 0.0138 | 0.94 | > 5 | 0.958 | > 10 | 0.948 | > 1.02 | 0.897 | > 2.56 | 0.843 | 9.62 | 0.982 | > 20 | 0.489 | 0.58 | – | –
YAPC (pancreas, adherent) | 0.902 | > 10.2 | 0.966 | > 20 | 0.902 | > 2 | 0.908 | > 16 | 0.98 | > 5 | 0.628 | 0.0787 | 0.969 | > 5 | 0.984 | > 10 | 0.982 | > 1.02 | 0.984 | > 2.56 | 0.981 | > 10 | 0.983 | > 20 | 0.882 | > 10 | – | –
